Data as given in the supplement of paper PMC4604168 (melanoma cell lines).
The list shows a part of the results. Many values rest on one well or one pass, so single values are uncertain.

Legend:
Assay in all cases: cell count relative to DMSO control; melanoma cells; higher = more viable cells
Conditions in all cases: library dose: standard library concentration; 72 h
501Mel = system: 501Mel
A101D = system: A101D
A2058 = system: A2058
A375 = system: A375
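Further: cells treated in 1,536-well plates, then fixed and DAPI-stained, with nuclei counted from automated high-throughput microscope images.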

SMILES | cell count (501Mel) [%] | cell count (A101D) [%] | cell count (A2058) [%] | cell count (A375) [%]
N#CC[C@H](C1CCCC1)n1cc(-c2ncnc3[nH]ccc23)cn1 [ruxolitinib] + COc1cc2ncnc(Nc3ccc(Oc4ccccc4)cc3)c2cc1OC [SrcI1] (first compound 5 µM, partner dose 10 µM) | 89.3 | 75.2 | 68 | 130
Cc1cc(Nc2cc(N3CCN(C)CC3)nc(Sc3ccc(NC(=O)C4CC4)cc3)n2)n[nH]1 [Tozasertib] + Cn1cc(/C=C2\C(=O)Nc3cccnc32)c2ccccc21 [GW441756] (first compound 0.03 µM, partner dose 2 µM) | 70.9 | 90 | 78.7 | 135
CC[C@]1(O)C[C@H]2CN(CCc3c([nH]c4ccccc34)[C@@](C(=O)OC)(c3cc4c(cc3OC)N(C=O)[C@H]3[C@@](O)(C(=O)OC)[C@H](OC(C)=O)[C@]5(CC)C=CCN6CC[C@]43[C@@H]65)C2)C1 [vincristine] + Oc1cc(-c2nc(-c3ccccc3)[nH]c2-c2ccncc2)ccc1Cl [L779450] (first compound 0.0005 µM, partner dose 1 µM) | 70.7 | 52.7 | 7.91 | 85.6
CC[C@]1(O)C[C@H]2CN(CCc3c([nH]c4ccccc34)[C@@](C(=O)OC)(c3cc4c(cc3OC)N(C=O)[C@H]3[C@@](O)(C(=O)OC)[C@H](OC(C)=O)[C@]5(CC)C=CCN6CC[C@]43[C@@H]65)C2)C1 [vincristine] + C[C@@H](N)c1ccc(C(=O)Nc2ccnc3[nH]ccc23)cc1 [RKI983] (first compound 0.0005 µM, partner dose 2 µM) | – | 36 | 5.68 | 90.4
N#CC[C@H](C1CCCC1)n1cc(-c2ncnc3[nH]ccc23)cn1 [ruxolitinib] + O=C(Nc1ccccc1)c1cc([N+](=O)[O-])ccc1Cl [GW9662] (first compound 5 µM, partner dose 10 µM) | 98 | 80.7 | 69.3 | 136
CC[C@]1(O)C[C@H]2CN(CCc3c([nH]c4ccccc34)[C@@](C(=O)OC)(c3cc4c(cc3OC)N(C=O)[C@H]3[C@@](O)(C(=O)OC)[C@H](OC(C)=O)[C@]5(CC)C=CCN6CC[C@]43[C@@H]65)C2)C1 [vincristine] + CCCCCCCCCCCCCCCCCCOP(=O)([O-])OC1CC[N+](C)(C)CC1 [Perifosine] (first compound 0.0005 µM, partner dose 2 µM) | – | 65.1 | 97.1 | 74.9
N#CC[C@H](C1CCCC1)n1cc(-c2ncnc3[nH]ccc23)cn1 [ruxolitinib] + COc1cc(N2CCC(N3CCN(C)CC3)CC2)ccc1Nc1ncc(Cl)c(Nc2ccccc2S(=O)(=O)C(C)C)n1 [NVP-TAE684] (first compound 5 µM, partner dose 0.4 µM) | 72.1 | 92.8 | 40.5 | 101
CC[C@]1(O)C[C@H]2CN(CCc3c([nH]c4ccccc34)[C@@](C(=O)OC)(c3cc4c(cc3OC)N(C=O)[C@H]3[C@@](O)(C(=O)OC)[C@H](OC(C)=O)[C@]5(CC)C=CCN6CC[C@]43[C@@H]65)C2)C1 [vincristine] + CS(=O)(=O)CCNCc1ccc(-c2ccc3ncnc(Nc4ccc(OCc5cccc(F)c5)c(Cl)c4)c3c2)o1 [lapatinib] (first compound 0.0005 µM, partner dose 4 µM) | – | 31.4 | 14.8 | 71.3
CC[C@]1(O)C[C@H]2CN(CCc3c([nH]c4ccccc34)[C@@](C(=O)OC)(c3cc4c(cc3OC)N(C=O)[C@H]3[C@@](O)(C(=O)OC)[C@H](OC(C)=O)[C@]5(CC)C=CCN6CC[C@]43[C@@H]65)C2)C1 [vincristine] + COc1ccc(-c2ccc3c(N4CCOCC4)nc(N4C[C@@H](C)O[C@@H](C)C4)nc3n2)cc1CO [KU0063794] (first compound 0.0005 µM, partner dose 0.1 µM) | 95.1 | 73.4 | 33.9 | 94.3
Cc1cc(Nc2cc(N3CCN(C)CC3)nc(Sc3ccc(NC(=O)C4CC4)cc3)n2)n[nH]1 [Tozasertib] + O=c1cc(-c2cccc3c2Sc2ccccc2S3)oc(N2CCOCC2)c1 [KU55933] (first compound 0.03 µM, partner dose 5 µM) | 84.7 | 76.8 | 87.6 | 101
N#CC[C@H](C1CCCC1)n1cc(-c2ncnc3[nH]ccc23)cn1 [ruxolitinib] + CN(c1ncccc1CNc1nc(Nc2ccc3c(c2)CC(=O)N3)ncc1C(F)(F)F)S(C)(=O)=O [PF562271] (first compound 5 µM, partner dose 0.4 µM) | – | 117 | 52.2 | 99.3
Cc1cc(Nc2cc(N3CCN(C)CC3)nc(Sc3ccc(NC(=O)C4CC4)cc3)n2)n[nH]1 [Tozasertib] + COc1ccc2c(c1)CCC1C2CCC2(C)C(NCCCCCCN3C(=O)C=CC3=O)CCC12 [U73122] (first compound 0.03 µM, partner dose 2 µM) | 105 | 73 | 73.2 | 113
Cc1cc(Nc2cc(N3CCN(C)CC3)nc(Sc3ccc(NC(=O)C4CC4)cc3)n2)n[nH]1 [Tozasertib] + COC(=O)c1sccc1S(=O)(=O)Nc1ccc(Nc2ccccc2)cc1OC [GSK0660] (first compound 0.03 µM, partner dose 5 µM) | 53.9 | 75.1 | 78.1 | 84
N#CC[C@H](C1CCCC1)n1cc(-c2ncnc3[nH]ccc23)cn1 [ruxolitinib] + COc1ccc2c(c1)CCC1C2CCC2(C)C(NCCCCCCN3C(=O)C=CC3=O)CCC12 [U73122] (first compound 5 µM, partner dose 2 µM) | 90.3 | 71.2 | 42.9 | 90.4
Cc1cc(Nc2cc(N3CCN(C)CC3)nc(Sc3ccc(NC(=O)C4CC4)cc3)n2)n[nH]1 [Tozasertib] + N#Cc1c(O)c2c(-c3ccc(-c4ccccc4O)cc3)csc2[nH]c1=O [A769662] (first compound 0.03 µM, partner dose 10 µM) | 81.1 | 99.7 | 85.7 | 92.8
N#CC[C@H](C1CCCC1)n1cc(-c2ncnc3[nH]ccc23)cn1 [ruxolitinib] + COc1ccc(-c2ccc3c(N4CCOCC4)nc(N4C[C@@H](C)O[C@@H](C)C4)nc3n2)cc1CO [KU0063794] (first compound 5 µM, partner dose 0.1 µM) | 80.3 | 97.5 | 79.8 | 95
CC[C@]1(O)C[C@H]2CN(CCc3c([nH]c4ccccc34)[C@@](C(=O)OC)(c3cc4c(cc3OC)N(C=O)[C@H]3[C@@](O)(C(=O)OC)[C@H](OC(C)=O)[C@]5(CC)C=CCN6CC[C@]43[C@@H]65)C2)C1 [vincristine] + Nc1ncn([C@H]2C[C@H](O)[C@@H](CO)O2)c(=O)n1 [decitabine] (first compound 0.0005 µM, partner dose 0.5 µM) | – | 48.6 | 69.6 | 122
N#CC[C@H](C1CCCC1)n1cc(-c2ncnc3[nH]ccc23)cn1 [ruxolitinib] + NC(=O)Nc1cc(-c2cccc(F)c2)sc1C(=O)N[C@H]1CCCNC1 [AZD7762] (first compound 5 µM, partner dose 0.1 µM) | – | 65.2 | 76.1 | 62.6
Cc1cc(Nc2cc(N3CCN(C)CC3)nc(Sc3ccc(NC(=O)C4CC4)cc3)n2)n[nH]1 [Tozasertib] + O=C1NC(=O)/C(=C/c2ccc(-c3ccc(F)cc3O)o2)S1 [AS252424] (first compound 0.03 µM, partner dose 5 µM) | 72.1 | 81.6 | 81.9 | 126
N#CC[C@H](C1CCCC1)n1cc(-c2ncnc3[nH]ccc23)cn1 [ruxolitinib] + C[C@]1(c2nc3c(C(N)=O)cccc3[nH]2)CCCN1 [Veliparib] (first compound 5 µM, partner dose 7 µM) | – | 92.6 | 53.7 | –
Cc1cc(Nc2cc(N3CCN(C)CC3)nc(Sc3ccc(NC(=O)C4CC4)cc3)n2)n[nH]1 [Tozasertib] + c1cc(-c2cnn3cc(-c4ccc(OCCN5CCCCC5)cc4)cnc23)ccn1 [Dorsomorphin] (first compound 0.03 µM, partner dose 2 µM) | 62.3 | 91.2 | 49.3 | 117
Cc1cc(Nc2cc(N3CCN(C)CC3)nc(Sc3ccc(NC(=O)C4CC4)cc3)n2)n[nH]1 [Tozasertib] + CC1(C)CCC(c2ccc(Cl)cc2)=C(CN2CCN(c3ccc(C(=O)NS(=O)(=O)c4ccc(N[C@H](CCN5CCOCC5)CSc5ccccc5)c(S(=O)(=O)C(F)(F)F)c4)cc3)CC2)C1 [ABT263] (first compound 0.03 µM, partner dose 2 µM) | – | 30 | 72.3 | 63.7
